Measurements as given in the BET-seq Pho4 binding data (Le et al. 2018).
This is one part of the list. Values were computed here from the reads of four pooled replicates and scatter widely.

Molecular target: T1, Pho4 (S. cerevisiae) (UniProt P07270)
T1 sequence: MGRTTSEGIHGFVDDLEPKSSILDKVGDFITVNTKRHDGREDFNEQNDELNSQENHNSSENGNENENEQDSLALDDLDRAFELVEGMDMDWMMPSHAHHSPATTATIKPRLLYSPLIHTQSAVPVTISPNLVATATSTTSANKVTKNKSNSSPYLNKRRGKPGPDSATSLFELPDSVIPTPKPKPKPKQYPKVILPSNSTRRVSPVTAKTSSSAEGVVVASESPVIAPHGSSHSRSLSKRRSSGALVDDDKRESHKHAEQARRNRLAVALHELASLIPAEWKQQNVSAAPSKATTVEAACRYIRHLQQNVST
Test: relative binding free energy (BET-seq); higher = weaker binding
Settings: reference: library average

Sequence	relative binding free energy [kcal/mol]
TTGGCCACGTGTATAT	-0.07
CGGTACACGTGGCGGA	0.05
GAGGACACGTGTTTTG	0.21
ATCATCACGTGTAGGT	0.18
TGGTACACGTGTGGAT	0.03
GGTCACACGTGGCTTG	0.06
CCGTTCACGTGTGTTG	0.28
GGGGTCACGTGTTTAA	0.17
CGCGGCACGTGTGAGA	0.04
CTTATCACGTGGGAGA	0.01
TTGGTCACGTGGACTA	0.03
GTAGACACGTGGTAGT	-0.02
GAGCTCACGTGGTGGA	0.31
TTGAGCACGTGTGATA	0.04
AGGCACACGTGGTGGT	-0.06
ATGTTCACGTGTACGT	0.15
TTGAACACGTGGGGTC	-0.1
CTGTTCACGTGGATAG	0.13
GGTATCACGTGAGAGA	0.41
ATGGTCACGTGGACTT	0.17
TGGGACACGTGAGACG	0.26
GTATTCACGTGTAATA	0.33
GTTAGCACGTGTGGAT	0.12
ATAAGCACGTGTTTAT	-0.16
GATATCACGTGTGCGT	0.22

Sequence	relative binding free energy [kcal/mol]
TATGTCACGTGGGAGT	-0.09
TGATTCACGTGTGAGT	0.24
AATGGCACGTGAACGG	0.18
GGGGCCACGTGGTGCT	-0.13
CCGTGCACGTGGTGTT	-0.18
ATTATCACGTGGAGCT	0.05
TGGTGCACGTGGAAGT	0.07
GAGTACACGTGCGGTT	0.18
AAAAACACGTGGGAGG	0
TGAAGCACGTGCTATG	-0.09
TTGAACACGTGCAGTG	0.02
AATATCACGTGAGTAG	0.31
AGGAGCACGTGGATTT	0.11
TTATGCACGTGTTGGA	-0.04
CCGGGCACGTGGGGGG	-0.29
GGGATCACGTGCGGTC	0.2
GGGGTCACGTGTTAGC	0.31
TGAATCACGTGGCTTG	0.23
CTTGCCACGTGTCGGG	0.04
TGGTGCACGTGGACAG	-0.02
AGACTCACGTGGGAGG	0.1
GTGATCACGTGTAAGG	0.25
AGGTCCACGTGGTGTG	-0.09
ATATACACGTGTTGAG	-0.06
GGGGGCACGTGCGGAC	-0.02

Sequence	relative binding free energy [kcal/mol]
GCCGGCACGTGGGGGG	-0.19
ATGATCACGTGGATAG	0.07
TTTTGCACGTGACGGA	0.19
CGGTACACGTGGGGTA	-0.12
TCGGTCACGTGGTAAA	0.21
TGTGGCACGTGTGCAA	-0.11
TGGATCACGTGTAGTA	0.21
GTCCACACGTGGGGGT	-0.03
AATTGCACGTGAATTA	0.16
ACGTTCACGTGGTTAG	0.08
TGGTGCACGTGTGCGC	-0.09
ACTTGCACGTGGTGGG	-0.17
TAGTTCACGTGCAGGG	0.35
TGTTGCACGTGTGCAA	-0.04
TGTGTCACGTGTGGTC	0.14
TTGGCCACGTGTGTAA	-0.07
GTAGTCACGTGGTAGT	0.16
AGGCTCACGTGAGGCG	0.2
TACAGCACGTGGGGAG	-0.25
TAGAACACGTGTTTGG	-0.07
GCGTTCACGTGGGCAG	0.28
TGTGGCACGTGAGGGC	0.24
GGTGGCACGTGCGGAA	-0.21
